This is one part of the list. At the low end of the ranking the order means little.
biological target: GST-SBP-SLBP (stem-loop binding protein) (UniProt Q14493); test: targeted RNA Bind-n-Seq; details: RBNS binding buffer: 25 mM Tris pH 7.5, 150 mM KCl, 3 mM MgCl2, 0.1% Tween, 0.5 mg/mL BSA, 1 mM DTT; 27 nM protein, 750 pM RNA pool; temperature not stated; high values mean tight binding;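 note: DESeq read counts versus GST-SBP nonspecific binding control pulldown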

Sequence | binding signal (log2 fold change)
GGUCACGUCUCAAUCAACUCAUCUUCCAGGGAAAACCCUGGCGUUUUCAACAGCUCGCAGUCAAG | 0.146
GGUCACGUCUCAAUCAACUCAUCGUCAGGAGUUUGCUCCUGCAUUUUCAACAGCUCGCAGUCAAG | -0.0606
GGUCACGUCUCAAUCAACUCAGUCUCCAGGGAAAGCCCUGGUUUUUUCAACAGCUCGCAGUCAAG | -0.0798
GGUCACGUCUCAAUCAACUCAUCUCCAGGAGUUUACUCCUGCAUAUUCAACAGCUCGCAGUCAAG | 0.229
GGUCACGUCUCAAUCAACUCUAUAGAGGGGGGGAAAACCCCUUUACCCUCACAUUCAACAGCUCGCAGUCAAG | -0.213
GGUCACGUCUCAAUCAACUCAAUUUCAGGAGUUUGCUCCUGUAUAUUCAACAGCUCGCAGUCAAG | -0.0421
GGUCACGUCUCAAUCAACUCUUCUUCCAGGGAAAUCCCUGGUAAAUUCAACAGCUCGCAGUCAAG | -0.242
GGUCACGUCUCAAUCAACUCAUGUCCAGGAGUUUUCUCCUGCUUUCUCAACAGCUCGCAGUCAAG | -0.123
GGUCACGUCUCAAUCAACUCUCAAGAGGGGGGGAAAACCCCUUUACCCUCCGUAUCAACAGCUCGCAGUCAAG | -0.216
GGUCACGUCUCAAUCAACUCUUCUCCAGGAGUUUACUCCUGUUUUCUCAACAGCUCGCAGUCAAG | -0.142
GGUCACGUCUCAAUCAACUCCUACGAGGGGGGGAAAACCCCUUUACCCUCAAAAUCAACAGCUCGCAGUCAAG | -0.15
GGUCACGUCUCAAUCAACUCCUAAGAGGGGGGGAAAACCCCUUUGCCCUCAUCUUCAACAGCUCGCAGUCAAG | -0.166
GGUCACGUCUCAAUCAACUCUAAAGAGGGGGGGAAAACCCCUUUACCCUCGUACUCAACAGCUCGCAGUCAAG | 0.194
GGUCACGUCUCAAUCAACUCAAUCUCCAGGGAAAACCCUGGUUUACUCAACAGCUCGCAGUCAAG | -0.0691
GGUCACGUCUCAAUCAACUCAUCCCCAGGAGUUUUCUCCUGCAUUCUCAACAGCUCGCAGUCAAG | 0.11
GGUCACGUCUCAAUCAACUCUUUUCCAGGAGUUUUCUCCUGCAUACUCAACAGCUCGCAGUCAAG | -0.00321
GGUCACGUCUCAAUCAACUCCUAUGAGGGGGGGAAAACCCCUUUACCCUCCAAUUCAACAGCUCGCAGUCAAG | -0.335
GGUCACGUCUCAAUCAACUCUUAAGAGGGGGGGAAAACCCCUUUACCCUCAAUGUCAACAGCUCGCAGUCAAG | -0.0691
GGUCACGUCUCAAUCAACUCAUUCCCAGGAGUUUACUCCUGCUUAUUCAACAGCUCGCAGUCAAG | -0.123

Sequence | binding signal (log2 fold change)
GGUCACGUCUCAAUCAACUCCCACGAGGGGGGGAAAACCCCUUUACCCUCAAACUCAACAGCUCGCAGUCAAG | -0.2
GGUCACGUCUCAAUCAACUCAACUUCCAGGGAAACCCCUGGUUAACUCAACAGCUCGCAGUCAAG | 0.279
GGUCACGUCUCAAUCAACUCAUCUUCCAGGGAAAGCCCUGGUUUUCUCAACAGCUCGCAGUCAAG | -0.0852
GGUCACGUCUCAAUCAACUCAUCUCCCAGGGAAACCCCUGGCAUAUUCAACAGCUCGCAGUCAAG | -0.07
GGUCACGUCUCAAUCAACUCUUCUUCCAGGGAAAGCCCUGGCAUUUUCAACAGCUCGCAGUCAAG | -0.0671
GGUCACGUCUCAAUCAACUCUUCCUCAGGAGUUUACUCCUGCUAUCUCAACAGCUCGCAGUCAAG | 0.105
GGUCACGUCUCAAUCAACUCUACUCCCAGGGAAAGCCCUGGUAUACUCAACAGCUCGCAGUCAAG | 0.176
GGUCACGUCUCAAUCAACUCAUCUUCCAGGGAAACCCCUGGCAUUCUCAACAGCUCGCAGUCAAG | -0.344
GGUCACGUCUCAAUCAACUCACUAGAGGGGGGGAAAACCCCUUUACCCUCAAAAUCAACAGCUCGCAGUCAAG | 0.183
GGUCACGUCUCAAUCAACUCUACUCCAGGAGUUUUCUCCUGCAAACUCAACAGCUCGCAGUCAAG | 0.0589
GGUCACGUCUCAAUCAACUCCCUAGAGGGGGGGAAAACCCCUUUGCCCUCCAAAUCAACAGCUCGCAGUCAAG | -0.315
GGUCACGUCUCAAUCAACUCUUAAGAGGGGGGGAAAACCCCUUUACCCUCAUUCUCAACAGCUCGCAGUCAAG | 0.26
GGUCACGUCUCAAUCAACUCUACUCCCAGGGAAAGCCCUGGUUAACUCAACAGCUCGCAGUCAAG | -0.236
GGUCACGUCUCAAUCAACUCAGUUCCAGGAGUUUUCUCCUGUUUAUUCAACAGCUCGCAGUCAAG | -0.0683
GGUCACGUCUCAAUCAACUCUUCUUCAGGAGUUUUCUCCUGCAAACUCAACAGCUCGCAGUCAAG | 0.277
GGUCACGUCUCAAUCAACUCAACGCCAGGAGUUUUCUCCUGUUUUCUCAACAGCUCGCAGUCAAG | -0.121
GGUCACGUCUCAAUCAACUCUUUCGAGGGGGGGAAAACCCCUUUACCCUCUACAUCAACAGCUCGCAGUCAAG | -0.492
GGUCACGUCUCAAUCAACUCUUCAGAGGGGGGGAAAACCCCUUUACCCUCAUAAUCAACAGCUCGCAGUCAAG | -0.114

Reference: PMC5892938
